In PubChem BioAssay AID504332 (National Center for Advancing Translational Sciences (NCATS), 2011):
Among all 350,000 compounds or so, about 31,000 (8.9%) were called active. Inconclusive means that the source gave no clear call. Such entries were picked first, then a sample of the others. Calls follow the shape of the dose curve; as a rule, active = well fitted inhibition curve with a large enough effect; inconclusive = small, poorly fitted or top-dose-only effect; inactive = no such curve, though single readings can be large or run the other way. Potencies of inconclusive entries are doubtful fits and often do not repeat.

molecular target: Histone-lysine N-methyltransferase EHMT2 (Homo sapiens) (UniProt Q96KQ7); assay: qHTS Assay for Inhibitors of Histone Lysine Methyltransferase G9a; conditions: G9a H3K9 monomethylation, AlphaScreen, 2 h; activity, negative = inhibition: at 59 µM (top of the series) unless noted; also: nearly all actives have a fitted effect of over 75% in size
Sequence of UniProt Q96KQ7 (Q96KQ7 whole entry, looked up): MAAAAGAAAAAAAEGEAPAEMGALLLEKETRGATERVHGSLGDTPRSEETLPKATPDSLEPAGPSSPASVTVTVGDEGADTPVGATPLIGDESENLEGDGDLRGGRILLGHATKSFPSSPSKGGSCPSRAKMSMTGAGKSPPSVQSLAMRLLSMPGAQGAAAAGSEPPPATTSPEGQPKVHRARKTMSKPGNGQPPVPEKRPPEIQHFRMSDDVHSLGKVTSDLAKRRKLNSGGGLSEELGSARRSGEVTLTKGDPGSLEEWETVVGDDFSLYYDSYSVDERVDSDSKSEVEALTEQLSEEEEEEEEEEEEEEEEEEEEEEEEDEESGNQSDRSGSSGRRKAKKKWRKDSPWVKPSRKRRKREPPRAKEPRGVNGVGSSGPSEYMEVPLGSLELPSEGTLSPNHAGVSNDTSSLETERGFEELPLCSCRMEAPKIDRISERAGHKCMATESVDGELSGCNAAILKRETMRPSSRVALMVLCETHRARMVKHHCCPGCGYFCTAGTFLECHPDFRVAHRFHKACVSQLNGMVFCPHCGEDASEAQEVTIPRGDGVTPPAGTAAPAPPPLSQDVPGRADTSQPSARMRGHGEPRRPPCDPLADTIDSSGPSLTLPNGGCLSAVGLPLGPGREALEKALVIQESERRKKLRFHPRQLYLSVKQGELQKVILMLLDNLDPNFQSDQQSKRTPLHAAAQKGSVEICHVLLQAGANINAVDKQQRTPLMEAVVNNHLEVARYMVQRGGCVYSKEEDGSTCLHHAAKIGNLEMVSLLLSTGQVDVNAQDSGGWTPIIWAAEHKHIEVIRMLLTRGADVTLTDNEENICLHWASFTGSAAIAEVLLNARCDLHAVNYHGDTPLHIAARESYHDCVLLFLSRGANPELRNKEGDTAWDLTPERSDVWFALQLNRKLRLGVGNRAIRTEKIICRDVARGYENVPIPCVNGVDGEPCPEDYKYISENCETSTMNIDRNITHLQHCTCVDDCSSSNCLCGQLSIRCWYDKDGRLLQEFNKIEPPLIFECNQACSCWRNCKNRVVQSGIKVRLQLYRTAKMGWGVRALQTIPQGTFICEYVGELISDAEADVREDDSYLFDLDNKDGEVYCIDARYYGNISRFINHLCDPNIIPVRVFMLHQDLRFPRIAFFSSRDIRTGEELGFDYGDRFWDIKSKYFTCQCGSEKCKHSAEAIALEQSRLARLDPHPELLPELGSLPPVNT
How it was run: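 Enzyme 20 nM + cpd, 15 min RT; add b-H3K9 pep 500 nM / SAM 20 uM; 2 h RT; anti-H3K9me1 Ab 0.5 ug/mL + SA donor / anti-rabbit acceptor beads 20 ug/mL each, 10 min; AlphaScreen read.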
% is scaled to controls: 0 for no effect and ±100 for the full control effect; potency is read from the fitted curve at half-maximal effect; tags tell the direction and shape of the fitted curve.

Structure (SMILES)	Potency	activity, negative = inhibition
Cc1nc(SCC(=O)Nc2ccccc2Cl)cc(-c2ccccc2)n1	inactive	–
NC(=O)Nc1ccc(C(=O)OCC(=O)N2CCCC2=O)cc1	inactive	–
O=C(NC(=S)Nc1ccc(S(=O)(=O)Nc2nccs2)cc1)c1ccccc1	inconclusive: 17.8 µM [inhibitor, partial curve, poor fit]	–
O=C(COC(=O)C1CCN(c2ccc(C(F)(F)F)cn2)CC1)NCc1cccc(Cl)c1	inconclusive: 89.1 µM [inhibitor, single point]	–
NC(=O)[C@H]1CC2(CC(c3cccc(NC(=O)COc4ccc(Cl)cc4)c3)=NO2)CN1C(=O)c1ccc(Cl)cc1 (stereo not given in full)	inconclusive: 3.16 µM [inhibitor, partial curve, poor fit]	–
CCC(C)c1ccc(NC(=S)NCCn2cc(Br)cn2)cc1 (stereo not given)	inconclusive: 50.1 µM [inhibitor, partial curve, poor fit]	–
CCS(=O)(=O)N1CC(=O)N(c2cccc(C)c2C)C(C)(C(=O)NC2CCCCCC2)C1 (stereo not given)	inactive	–
CCOC(=O)C1=C2c3cc(OC)c(OC)cc3CC(C)(C)N2C(=O)C1=O	inconclusive: 25.1 µM [inhibitor, single point]	–
COc1ccc(N2CC(C(=O)NCc3ccccc3)CC2=O)cc1 (stereo not given)	inconclusive: 89.1 µM [inhibitor, single point]	–
COc1ccccc1/C=C(/CC(=O)NCc1ccccc1)c1nc2ccccc2s1	inconclusive: 50.1 µM [inhibitor, partial curve, poor fit]	–
Cc1cc(C)c2ccc(N)nc2c1O	inconclusive: 17.8 µM [inhibitor, single point]	–
Cc1onc(-c2ccccc2)c1C(=O)NNC(=S)NC(=O)c1ccc(Br)cc1	inconclusive: 39.8 µM [inhibitor, single point]	–
Cc1cc(Cl)c(OCCN2C(=O)NC(C)(C)C2=O)c(Br)c1	inactive	–
CCOc1cc(C(=S)N2CCCCC2)ccc1OS(=O)(=O)c1ccc(Br)cc1	inactive	–
CC(C)NC(=O)C(=O)NNC(=O)CCc1ccccc1	inconclusive: 50.1 µM [inhibitor, partial curve, poor fit]	–
O=C(CN1CCN(S(=O)(=O)c2ccc(F)cc2)CC1)NC1CCCC1	inconclusive: 7.94 µM [inhibitor, partial curve, poor fit]	–
Cc1ccc(CNCc2ccc3c(c2)OCO3)cc1	active: 12.6 µM	–
Cc1ccccc1SCC(=O)OCC(=O)N(C)c1c(N)n(Cc2ccccc2)c(=O)[nH]c1=O	active: 10 µM	–
CCc1ccc(S(=O)(=O)ON2C(=O)c3ccccc3C2=O)cc1	inconclusive: 7.08 µM [inhibitor, full curve, poor fit]	–
CCc1ccccc1NC(=O)Cn1c(C(=O)OC)cc2oc(C)cc21	inactive	–
Cc1c(NC(=O)CCCCCN2C(=O)c3ccccc3C2=O)c(=O)n(-c2ccccc2)n1C	inconclusive: 89.1 µM [inhibitor, partial curve, poor fit]	–
CC1CCCN(C2=NC(=O)/C(=C/c3cn(-c4ccccc4)nc3-c3cccc(S(=O)(=O)N(C)C)c3)S2)C1 (stereo not given)	inconclusive: 79.4 µM [inhibitor, partial curve, poor fit]	–
CCOC(=O)c1ccc(NC(=O)c2cccc3c(=O)c4c([nH]c23)CCCC4)cc1	inconclusive: 35.5 µM [inhibitor, partial curve, poor fit]	–
COc1ccc(NC(=O)Cn2ccn(Cc3ccccc3)c(=O)c2=O)cc1Cl	inactive	–

Structure (SMILES)	Potency	activity, negative = inhibition
Cc1cc(C(=O)NN)c2cc(Br)ccc2n1	inconclusive: 79.4 µM [inhibitor, partial curve, poor fit]	–
NNc1nc2c(Cl)ccc(Cl)c2s1	inconclusive: 0.708 µM [inhibitor, full curve]	–
CC(C)CN1CCN=C1N(C)C	–	inactive: -12.2% [at 2.33 µM]
CC(CN1CCCCC1)NC(=O)c1cc(-c2ccccn2)nc2ccc(Cl)cc12 (stereo not given)	inactive	–
CN1CC=C2C(C#N)=C(N)C(C#N)(C#N)[C@H](c3cccs3)[C@H]2C1	inconclusive: 25.1 µM [inhibitor, single point]	–
Cc1ccc(-c2n[nH]c(=S)n2/N=C/c2ccncc2)cc1	active: 1.58 µM	–
Cc1c(C(=O)N/N=C/c2ccc(O)cc2)sc(=S)n1C	inactive	–
Cc1ccc(N2C(=O)CC(NCc3ccc4c(c3)OCO4)C2=O)cc1Cl (stereo not given)	active: 39.8 µM	–
Cc1nc([N+](=O)[O-])c(Sc2nc3ccc([N+](=O)[O-])cc3[nH]2)n1Cc1ccccc1	inconclusive: 89.1 µM [inhibitor, single point]	–
O=C(Nc1ccccc1)c1cnc2ccccc2n1	inconclusive: 39.8 µM [inhibitor, single point]	–
O=C(c1ccc(Cl)s1)N1CCN(c2ncccn2)CC1	inconclusive: 89.1 µM [inhibitor, partial curve, poor fit]	–
CCn1c(CN2CCCCC2)nc2cc(NC(=O)COc3cc(C)ccc3C(C)C)ccc21	inconclusive: 6.31 µM [inhibitor, partial curve, poor fit]	–
CC(Sc1ccc2c(c1)OCCO2)C(=O)Nc1ccc(N2CCOCC2)cc1 (stereo not given)	active: 50.1 µM	–
COc1ccc(Nc2nc(-c3ccccc3)c3cc(Br)ccc3n2)cc1	active: 12.6 µM	–
Cc1ccc(N(C)S(=O)(=O)c2ccc(-c3cnc(C4CC4)o3)cc2)cc1	inactive	–
CN1CCN(C(=O)Nc2ccccc2)CC1	active: 2.24 µM	–
CCOC(=O)c1cc(-c2ccccc2)n(-c2cccc(C(=O)NC(C)CC)c2)c1C (stereo not given)	inconclusive: 10 µM [inhibitor, partial curve, poor fit]	–
CC(OC(=O)c1cccc(S(=O)(=O)N2CCCCC2)c1)C(=O)NC1CCCCC1C (stereo not given)	inactive	–
O=C(Nc1ccccc1C(=O)Nc1ccncc1)c1ccccc1	inactive	–
O=C(CN1CCN(c2ccccc2O)CC1)Nc1cc([N+](=O)[O-])ccc1Cl	active: 44.7 µM	–
Cc1scc(-c2n[nH]c(=S)n2C(C)c2ccccc2)c1C (stereo not given)	active: 2 µM	–
O=S1(=O)CCC(=Nc2ccc(Cl)cc2)c2ccsc21	inconclusive: 0.251 µM [inhibitor, partial curve, poor fit]	–
CCOC(=O)N1CCN(Cc2nnc(-c3ccccc3C)o2)CC1	inconclusive: 44.7 µM [inhibitor, partial curve, poor fit]	–
COCCCNC(=O)c1ccc(CSCc2ccc(C)cc2)o1	inconclusive: 89.1 µM [inhibitor, single point]	–

Structure (SMILES)	Potency	activity, negative = inhibition
CN(C)CCCn1c(SCc2c(Cl)cccc2Cl)nnc1-c1ccncc1	active: 10 µM	–
Nc1ccc(N(CCO)CCO)cc1	active: 11.2 µM	–
COc1cc2c(cc1OC)C(COc1ccccc1OC)N(C(=O)c1ccc(S(=O)(=O)N3CCCC3)cc1)CC2 (stereo not given)	inactive	–
Cc1ccc2c(c1)N(CCC(=O)NCC1COc3ccccc3O1)C(=O)CO2 (stereo not given)	inconclusive: 44.7 µM [inhibitor, partial curve, poor fit]	–
Cc1ccc(C)c(NC(=O)N2CCN(c3nnc(C)c4c(C)n(-c5ccccc5)nc34)CC2)c1	inactive	–
COc1ccc2[nH]c3c(=O)n(/N=C/c4ccc(OC)c(CN5CCCC5)c4)c(C)nc3c2c1	inconclusive: 50.1 µM [inhibitor, partial curve]	–
c1c(CC2CCCC2)nnn1C[C@H]1CC[C@@H]([C@@H]2CC[C@H](Cn3cc(CC4CCCC4)nn3)O2)O1	active: 39.8 µM	–
Cc1ccc(C(=O)N/N=C/c2cccc(OC(=O)/C=C/c3ccco3)c2)cn1	active: 44.7 µM	–
COc1ccc(CN(C)CC(=O)Nc2ccc(N3CCOCC3)cc2)cc1OC	inconclusive: 89.1 µM [inhibitor, single point]	–
CCNc1ccc2noc3c2c1C(=O)c1ccccc1-3	inconclusive: 25.1 µM [inhibitor, single point]	–
CC(C)(CNC(=O)C1CCN(S(=O)(=O)c2cc([N+](=O)[O-])ccc2Cl)CC1)N1CCOCC1	inconclusive: 39.8 µM [inhibitor, partial curve]	–
COc1ccc(-c2cc(C(=O)Nc3ccc(S(=O)(=O)Nc4ncccn4)cc3)c3ccccc3n2)cc1	inconclusive: 79.4 µM [inhibitor, partial curve, poor fit]	–
Cc1ccc2c(CN3CCN(Cc4ccc5c(c4)OCO5)CC3)cc(=O)oc2c1C	inconclusive: 0.631 µM [inhibitor, full curve, poor fit]	–
Cc1onc(-c2ccccc2Cl)c1C(=O)N1CCN(C)CC1	inactive	–
CCOC(=O)CSc1nc(N)c(C#N)c(-c2ccc(OC)cc2)c1C#N	active: 50.1 µM	–
CC(C)(CC(=O)O)CC(=O)NNc1ncccc1C#N	inconclusive: 79.4 µM [inhibitor, single point]	–
Cc1noc(NS(=O)(=O)c2ccc(NC(=O)CSc3nc4c(cc3C#N)CCC4)cc2)c1C	active: 7.08 µM	–
COC(=O)c1cccc(Nc2c(-c3ccc(O)cc3)nc3nc[nH]n23)c1	inconclusive: 17.8 µM [inhibitor, partial curve]	–
COc1ccc(N2CCN(C(=O)c3cn(C4CCCCC4)c(=O)c4c3c3ccccc3n4C)CC2)cc1	active: 10 µM	–
COC(=O)c1cc(OC)c(OC)cc1NC(=O)CN1CCCCC1	inconclusive: 11.2 µM [inhibitor, partial curve]	–
CCC(C)N(C(=O)C(F)(F)F)C(C(=O)NC1CCCCC1)c1ccncc1 (stereo not given)	inconclusive: 17.8 µM [inhibitor, single point]	–
COc1ccc(S(=O)(=O)N2CCOCC2)cc1NC(=O)c1sccc1C	–	inactive: 7.28% [at 0.501 µM]
